Publication PMC8536799 (Journal of medicinal chemistry, 2021)

What was measured:
SARS-CoV-2 M^pro [1] = target: T1, SARS-CoV-2 M^pro (Severe acute respiratory syndrome coronavirus 2, UniProt P0DTD1); settings: versus compound 13
SARS-CoV-2 M^pro [2] = target: T1, SARS-CoV-2 M^pro; experiment: Native mass spectrometry binding assay; settings: 10 μM and 30 μM ligand, 4 mM DTT
SARS-CoV-2 M^pro [3] = target: T1, SARS-CoV-2 M^pro; experiment: Enzymatic kinetic studies; type: biochemical; settings: for mode of inhibition (Lineweaver-Burk plot): double-reciprocal plot, intercept at the Y-axis

| SMILES | fold increase in M^pro inhibition compared to compound 13 (SARS-CoV-2 M^pro [1]) | binding stoichiometry, native mass spectrometry (SARS-CoV-2 M^pro [2]) | Ki (SARS-CoV-2 M^pro [3]) | mode of inhibition (Lineweaver-Burk plot) (SARS-CoV-2 M^pro [3]) |
| --- | --- | --- | --- | --- |
| C[C@H](NC(=O)C(c1cccnc1)N(C(=O)c1ccco1)c1ccc([Si](C)(C)C)cc1)c1ccccc1 (stereo partly drawn) [Compound 14, 2-[1-(furan-2-yl)-N-[4-(trimethylsilyl)phenyl]formamido]-N-[(1S)-1-phenylethyl]-2-(pyridinyl)acetamide] | 2.9 fold |  |  |  |
| C[C@H](NC(=O)[C@@H](c1cccnc1)N(C(=O)c1ccco1)c1ccc(-c2ccccc2)cc1)c1ccccc1 [Compound 23R, (2R)-2-(N-{[1,1’-biphenyl]-4-yl}-1-(furan-2-yl)formamido)-N-[(1S)-1-phenylethyl]-2-(pyridin-3-yl)acetamide] |  | one drug per monomer | 70 nM | competitive inhibitor |
| CC(C)(C)NC(=O)C(c1cccnc1)N(C(=O)c1ccco1)c1ccc(C(C)(C)C)cc1 (centres unmarked) [ML188 (1), N-tert-butyl-2-[N-(4-tert-butylphenyl)-1-(furan-2-yl)formamido]-2-(pyridin-3-yl)acetamide, reference compound] |  |  |  | competitive inhibitor |
